Experimental data from the supplement of paper PMC12340641.
Whole data set: some 1,000 compounds, median “relative growth in counter assay (no AraC = 100%, AraC + DMSO = 0%)” near -1.1, cut for the highest 2% near 20. The list shows a part of the results.

Each compound was assayed on HEK293FT dCK*-only (assay: relative growth in counter assay (no AraC = 100%, AraC + DMSO = 0%); higher = more growth rescue independent of IKZF1). Details: compound concentration: 5 uM; AraC concentration: 0.3 uM; overnight pretreatment + 4 days AraC.
Method: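 Growth recovery screen of the molecular-glue-like (Specs) library. HEK293FT cells expressing a dCK*-IKZF1 fusion (primary) or dCK* alone (counter) were pretreated overnight with compound at 5 uM, then given 0.3 uM AraC for 4 days. Hoechst nuclei were counted by imaging. Primary: normalised to pomalidomide (100%) and DMSO (0%), mean of 2 replicates. Counter: normalised to no-AraC (100%) and AraC+DMSO (0%), single replicate.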

Row | SMILES | relative growth in counter assay
1 | Cc1nc(Nc2cccc(C3CCN(C(=O)CCC4NC(=O)NC4=O)CC3)n2)sc1C (stereo not given) | 2.58%
2 | Cc1ccc(Nc2nc(C3CCCN(C(=O)/C=C/c4csc(C)n4)C3)cs2)nc1 (stereo not given) | 3.58%
3 | Cc1cnc(Nc2cccc(C3CCN(C(=O)[C@H]4CCCC[C@H]4C(=O)N(C)C)CC3)n2)s1 | -22.3%
4 | COc1ccc(NS(=O)(=O)c2ccc(NS(=O)(=O)c3ccccc3)cc2)nn1 | -2.89%
5 | Cc1cnc(Nc2cccc(C3CN(C(=O)C45CC6CC(CC(O)(C6)C4)C5)CCO3)n2)s1 (stereo not given) | -16.8%
6 | Cc1ccnc(NS(=O)(=O)c2ccc(NC(=O)C34CC5CC(CC(C5)C3)C4)cc2)n1 | -15.3%
7 | O=C(Nc1ccc(S(=O)(=O)Nc2ccccn2)cc1)c1ccc(Cl)cc1Cl | 7.6%
8 | Nc1ccc(C(=O)N2CCCC2c2cccc(Nc3nccs3)n2)cn1 (stereo not given) | -0.6%
9 | Cc1cnc(Nc2cccc(C3CCCN3C(=O)CCn3c(=O)oc4ccccc43)n2)s1 (stereo not given) | -16.3%
10 | Cc1nc(Nc2cccc(C3CCCN3C(=O)c3cc4ccc(F)cc4[nH]3)n2)sc1C (stereo not given) | 9.01%
11 | Cc1cnc(Nc2cccc(C3CCN(CC(N)=O)CC3)n2)s1 | -24.9%
12 | Cc1csc(Nc2cccc(C3CN(C(=O)CCOc4ccccc4C)CCO3)n2)n1 (stereo not given) | 49.2%
13 | CCCCc1cnc(Nc2cccc(C3CCN(C(=O)[C@@H]4CCCN4CCO)CC3)n2)s1 | 2.3%
14 | Cc1cc(Cl)ccc1OCC(=O)Nc1ccc(S(=O)(=O)Nc2ncccn2)cc1 | -1.87%
15 | CCCC(=O)Nc1ccc(S(=O)(=O)Nc2cc(OC)nc(OC)n2)cc1 | -1.4%
16 | COc1cc(OC)cc(C(=O)Nc2ccc(S(=O)(=O)Nc3nc(C)cc(C)n3)cc2)c1 | -0.77%
17 | CCCc1nc2ccccc2n1CC(=O)N1CCOC(c2cccc(Nc3ncc(C)s3)n2)C1 (stereo not given) | -16.5%
18 | Cc1ccn(CCC(=O)N2CCOC(c3cccc(Nc4ncc(C)s4)n3)C2)n1 (stereo not given) | -1.16%
19 | CCc1ccc(OCC(=O)Nc2ccc(S(=O)(=O)Nc3nc(C)cc(C)n3)cc2)cc1 | -9.47%
20 | Cc1cccc(C)c1OCC(=O)Nc1ccc(S(=O)(=O)Nc2ccccn2)cc1 | -8.13%
21 | CC(=O)N1CCC(c2cccc(Nc3ncc(C)s3)n2)CC1 | -25.3%
22 | CCc1ccccc1OCC(=O)Nc1ccc(S(=O)(=O)Nc2nc(C)cc(C)n2)cc1 | 5.52%
23 | COc1ccccc1C(=O)Nc1ccc(S(=O)(=O)Nc2nccc(C)n2)cc1 | -6.32%
24 | COc1ccc(NS(=O)(=O)c2ccc(NC(=S)NC(=O)/C=C/c3ccccc3)cc2)nn1 | 1.67%

Row | SMILES | relative growth in counter assay
25 | Nc1ccc(S(=O)(=O)Nc2nccc(/C=C/c3cccc(Br)c3)n2)cc1 | 8.78%
26 | Cc1csc(Nc2cccc(C3CCCN3C(=O)COCCN3CCCC3=O)n2)n1 (stereo not given) | -0.54%
27 | O=C(O)c1ccc(Oc2ccc3c(c2)C(=O)N(c2nccs2)C3=O)cc1 | 3.45%
28 | NC(=O)CN1CCCC(c2csc(Nc3ccccn3)n2)C1 (stereo not given) | -9.34%
29 | COc1ccccc1OCC(=O)Nc1ccc(S(=O)(=O)Nc2ncccn2)cc1 | 9.82%
30 | COc1cc(NS(=O)(=O)c2ccc(NS(=O)(=O)c3ccccc3)cc2)nc(OC)n1 | -2.98%
31 | COCCC(=O)N1CCC(c2cccc(Nc3ncc(C)s3)n2)CC1 | -4.11%
32 | CC(=O)Nc1ccc(-c2csc(Nc3cccc(C)n3)n2)cc1 | 5.34%
33 | Cc1cnc(Nc2cccc(C3CCN(C(=O)CN(C)C)CC3)n2)s1 | -21.2%
34 | O=C(O)CCOCCOCCNc1cccc2c1C(=O)N(C1CCC(=O)NC1=O)C2=O (stereo not given) | 1.04%
35 | COc1ccccc1CCC(=O)N1CCC(c2cccc(Nc3nc(C)cs3)n2)CC1 | 1.77%
36 | Cc1cc(C)nc(NS(=O)(=O)c2ccc(NC(=O)CSc3nc(C)cc(C)c3C#N)cc2)n1 | -2.72%
37 | Cc1cnc(Nc2cccc(C3CCN(C(=O)CCc4nc5ccccc5[nH]4)CC3)n2)s1 | -4.59%
38 | CCCOc1ccc(/C=C/C(=O)Nc2ccc(S(=O)(=O)Nc3ncccn3)cc2)cc1OC | -8.12%
39 | Cc1nc(Nc2cccc(C3CCCN3C(=O)CCc3nnc(C(C)C)o3)n2)sc1C (stereo not given) | 0.87%
40 | O=C(Nc1ccc(S(=O)(=O)Nc2ccccn2)cc1)c1cccs1 | -6.58%
41 | CCc1nnsc1C(=O)N1CCCC1c1cccc(Nc2nccs2)n1 (stereo not given) | -6.83%
42 | Cc1cc(NS(=O)(=O)c2ccc(NC(=O)COc3ccc(C(C)C)cc3)cc2)nc(C)n1 | -0.57%
43 | COc1ccc2[nH]c3nc(SCC(=O)N(Cc4ccccc4)c4ccc(F)cc4)nnc3c2c1 | 17.4%
44 | O=C1CCC(N2C(=O)c3cccc(N4CCC(C(=O)O)(c5ccccc5)CC4)c3C2=O)C(=O)N1 (stereo not given) | 4.08%
45 | COC1CCCC(C(=O)N2CCC(c3cccc(Nc4ncc(C)s4)n3)CC2)C1 (stereo not given) | -20.1%
46 | Cc1cnc(Nc2cccc(C3CCCN3C(=O)CCN(C)c3cccc(F)c3)n2)s1 (stereo not given) | -25.9%
47 | CCC(=O)N1CCOC(c2cccc(Nc3nc(C)c(C)s3)n2)C1 (stereo not given) | 7.53%
48 | CCNc1nc(NC(C)C)nc(NS(=O)(=O)c2ccc(N)cc2)n1 | 0.52%

Row | SMILES | relative growth in counter assay
49 | CCC(C)C(=O)Nc1ccc(S(=O)(=O)Nc2ncccn2)cc1 (stereo not given) | 0%
50 | Cc1nc(Nc2cccc(C3CN(C(=O)c4cn5cccc(C)c5n4)CCO3)n2)sc1C (stereo not given) | 2.16%
51 | COc1nccnc1NS(=O)(=O)c1ccc(NCc2ccccc2O)cc1 | 1.3%
52 | CS(=O)(=O)NCC(=O)N1CCC(c2cccc(Nc3ncc(-c4ccccc4)s3)n2)CC1 | -24.9%
53 | Cc1cnc(Nc2cccc(C3CN(C(=O)CCC4CCCCC4)CCO3)n2)s1 (stereo not given) | -1.73%
54 | CCOc1ccc(C(=O)Nc2ccc(S(=O)(=O)Nc3nccc(C)n3)cc2)cc1OCC | -1.48%
55 | CC(C)c1cnc(Nc2cccc(C3CN(C(=O)C4CCCCC4)CCO3)n2)s1 (stereo not given) | 3.17%
56 | Cc1ccc(C(C)C)c(OCC(=O)Nc2ccc(S(=O)(=O)Nc3ccccn3)cc2)c1 | -4.72%
57 | COc1cc(NS(=O)(=O)c2ccc(Nc3nc(-c4ccc(C)c(C)c4)cs3)cc2)nc(OC)n1 | 4.93%
58 | COc1ccc(N2C(=O)c3ccc(Oc4ccccc4)cc3C2=O)cc1 | -22.4%
59 | Cc1ccc(S(=O)(=O)CC(=O)Nc2ccc(S(=O)(=O)Nc3ncccn3)cc2)cc1 | 2.98%
60 | CC(C)Cc1nc2ccccc2n1CC(=O)N1CCC(Cc2cccc(Nc3nccs3)n2)CC1 | 3.92%
61 | CCOC(=O)c1ccc(N2C(=O)c3ccc(Oc4cccc(N)c4)cc3C2=O)cc1 | -0.53%
62 | Cc1cnc(Nc2cccc(C3CCCN3CC(N)=O)n2)s1 (stereo not given) | -25.2%
63 | CC(=O)Nc1ccc(S(=O)(=O)N(Cc2ccccc2)c2ccccn2)cc1 | 21%
64 | COc1cccc(OC)c1C(=O)Nc1ccc(S(=O)(=O)Nc2ncccn2)cc1 | -5.57%
65 | CNC(=O)C1(c2cccc(Nc3ncc(C)s3)n2)CN(C(=O)Cn2c(CC(C)C)nc3ccccc32)CCO1 (stereo not given) | 0.83%
66 | Cc1cnc(Nc2cccc(C3CCN(C(=O)C4(NC(=O)CC(C)C)CCCCC4)CC3)n2)s1 | -23.1%
67 | O=C1CCC(N2C(=O)c3ccc(N4CCC(C(=O)O)CC4)cc3C2=O)C(=O)N1 (stereo not given) | 0.27%
68 | Cc1ccc(C(=O)Nc2ccc(S(=O)(=O)Nc3nc(C)cc(C)n3)cc2)cc1 | -6.33%
69 | Cc1cc(C)nc(NS(=O)(=O)c2ccc(NC(=O)Nc3ccccc3)cc2)n1 | 2.55%
70 | Cc1csc(Nc2cccc(C3CCCN3C(=O)CCOc3ccccc3C)n2)n1 (stereo not given) | 19.2%
71 | Cc1cnc(Nc2cccc(C3CN(C(=O)Cc4ccccc4)CCO3)n2)s1 (stereo not given) | -5.45%
72 | O=C(Nc1ccc(S(=O)(=O)Nc2ncccn2)cc1)c1cc(Cl)ccc1Cl | 1.91%

Row | SMILES | relative growth in counter assay
73 | Cc1cc(C)nc(NS(=O)(=O)c2ccc(Nc3nc(-c4cccnc4)cs3)cc2)n1 | 0.46%
74 | Cc1csc(Nc2cccc(C3CCN(C(=O)c4cnccn4)CC3)n2)n1 | 0.29%
75 | C=CCc1cccc(CNc2ccc(S(=O)(=O)Nc3nccnc3OC)cc2)c1O | -1%
76 | Cc1cccc(OCC(=O)Nc2ccc(S(=O)(=O)Nc3cc(C)nc(C)n3)cc2)c1 | -3.57%
77 | Cc1cnc(Nc2cccc(C(CO)C3CCN(C(=O)C4(NC(=O)OC(C)(C)C)CCCCC4)CC3)n2)s1 (stereo not given) | 0.59%
78 | CCCOc1ccc(C(=O)Nc2ccc(S(=O)(=O)Nc3nc(C)cc(C)n3)cc2)cc1 | 5.24%
79 | Cc1cc(C)cc(OCC(=O)Nc2ccc(S(=O)(=O)Nc3ncccn3)cc2)c1 | -3.47%
80 | O=C(CSc1nnc2c(n1)[nH]c1ccc(Cl)cc12)Nc1ccc(Cl)cc1 | 3.64%
81 | CC(C)(C)OC(=O)N1CCOCC1C(=O)N1CCC(c2cccc(Nc3ncc(-c4ccccc4)s3)n2)CC1 (stereo not given) | 3.05%
82 | CCOCCC(=O)Nc1ccc(S(=O)(=O)Nc2ncccn2)cc1 | 3.97%
83 | Cc1cc(C)nc(NS(=O)(=O)c2ccc(NC(=O)c3ccc(Cl)cc3Cl)cc2)n1 | -1.97%
84 | Cc1ccnc(NS(=O)(=O)c2ccc(NC(=O)Cc3ccc(Cl)cc3)cc2)n1 | 4.12%
85 | Cc1ccnc(NS(=O)(=O)c2ccc(NC(=O)c3ccc(Cl)cc3[N+](=O)[O-])cc2)n1 | -5.55%
86 | Cc1cnc(Nc2cccc(C3CCN(C(=O)C4C5C=CC6(CN(C)C(=O)C46)O5)CC3)n2)s1 (stereo not given) | 0.67%
87 | O=C(Nc1ccc(S(=O)(=O)Nc2ncccn2)cc1)c1ccc(Br)cc1 | 1.1%
88 | CN(CCN1CCC(C(=O)O)CC1)c1cccc2c1C(=O)N(C1CCC(=O)NC1=O)C2=O (stereo not given) | 2.03%
89 | COc1ccc(/C=C/C(=O)NC(=S)Nc2ccc(S(=O)(=O)Nc3nccnc3OC)cc2)cc1OC | -22.9%
90 | COc1ccc(OCCCC(=O)Nc2ccc(S(=O)(=O)Nc3cc(C)nc(C)n3)cc2)cc1 | -0.26%
91 | Cc1csc(Nc2cccc(C3CCN(CC(=O)N4CCC(C(N)=O)CC4)CC3)n2)n1 | -0.8%
92 | CCC(C(=O)Nc1ccc(S(=O)(=O)Nc2ncccn2)cc1)c1ccccc1 (stereo not given) | 8.03%
93 | CCCC(=O)Nc1ccc(S(=O)(=O)Nc2cc(C)nc(C)n2)cc1 | -0.75%
94 | O=C(CN1CCC(c2cccc(Nc3nccs3)n2)CC1)N1CCCc2ccccc21 | -6.67%
95 | O=[N+]([O-])c1ccc(S(=O)(=O)Nc2ncccn2)cc1 | -0.85%
